In PubChem BioAssay AID504332 (National Center for Advancing Translational Sciences (NCATS), 2011):
Among all 350,000 compounds or so, about 31,000 (8.9%) were called active. This list was built around the results that the source calls inconclusive (neither active nor inactive); the mix of calls is not that of the screen. Calls follow the shape of the dose curve; as a rule, active = well fitted inhibition curve with a large enough effect; inconclusive = small, poorly fitted or top-dose-only effect; inactive = no such curve, though single readings can be large or run the other way. Potencies beside an inconclusive call are fits to weak or partial responses and may not hold up.

Target: Histone-lysine N-methyltransferase EHMT2 (Homo sapiens) (UniProt Q96KQ7)
Experiment: qHTS Assay for Inhibitors of Histone Lysine Methyltransferase G9a; also: nearly all actives have a fitted effect of over 75% in size
Conditions: G9a H3K9 monomethylation, AlphaScreen, 2 h; activity, negative = inhibition: at 59 µM (top of the series) unless noted
How it was run: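 AlphaScreen detection with an anti-monomethyl H3K9 antibody quantified product after a 2 h room-temperature reaction containing 500 nM biotinylated H3K9 peptide, 20 µM SAM and 20 nM enzyme, which had been preincubated 15 min with compound.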
% is scaled to controls: 0 for no effect and ±100 for the full control effect; potency is read from the fitted curve at half-maximal effect; tags tell the direction and shape of the fitted curve.

UniProt Q96KQ7, sequence (Q96KQ7 whole entry, looked up): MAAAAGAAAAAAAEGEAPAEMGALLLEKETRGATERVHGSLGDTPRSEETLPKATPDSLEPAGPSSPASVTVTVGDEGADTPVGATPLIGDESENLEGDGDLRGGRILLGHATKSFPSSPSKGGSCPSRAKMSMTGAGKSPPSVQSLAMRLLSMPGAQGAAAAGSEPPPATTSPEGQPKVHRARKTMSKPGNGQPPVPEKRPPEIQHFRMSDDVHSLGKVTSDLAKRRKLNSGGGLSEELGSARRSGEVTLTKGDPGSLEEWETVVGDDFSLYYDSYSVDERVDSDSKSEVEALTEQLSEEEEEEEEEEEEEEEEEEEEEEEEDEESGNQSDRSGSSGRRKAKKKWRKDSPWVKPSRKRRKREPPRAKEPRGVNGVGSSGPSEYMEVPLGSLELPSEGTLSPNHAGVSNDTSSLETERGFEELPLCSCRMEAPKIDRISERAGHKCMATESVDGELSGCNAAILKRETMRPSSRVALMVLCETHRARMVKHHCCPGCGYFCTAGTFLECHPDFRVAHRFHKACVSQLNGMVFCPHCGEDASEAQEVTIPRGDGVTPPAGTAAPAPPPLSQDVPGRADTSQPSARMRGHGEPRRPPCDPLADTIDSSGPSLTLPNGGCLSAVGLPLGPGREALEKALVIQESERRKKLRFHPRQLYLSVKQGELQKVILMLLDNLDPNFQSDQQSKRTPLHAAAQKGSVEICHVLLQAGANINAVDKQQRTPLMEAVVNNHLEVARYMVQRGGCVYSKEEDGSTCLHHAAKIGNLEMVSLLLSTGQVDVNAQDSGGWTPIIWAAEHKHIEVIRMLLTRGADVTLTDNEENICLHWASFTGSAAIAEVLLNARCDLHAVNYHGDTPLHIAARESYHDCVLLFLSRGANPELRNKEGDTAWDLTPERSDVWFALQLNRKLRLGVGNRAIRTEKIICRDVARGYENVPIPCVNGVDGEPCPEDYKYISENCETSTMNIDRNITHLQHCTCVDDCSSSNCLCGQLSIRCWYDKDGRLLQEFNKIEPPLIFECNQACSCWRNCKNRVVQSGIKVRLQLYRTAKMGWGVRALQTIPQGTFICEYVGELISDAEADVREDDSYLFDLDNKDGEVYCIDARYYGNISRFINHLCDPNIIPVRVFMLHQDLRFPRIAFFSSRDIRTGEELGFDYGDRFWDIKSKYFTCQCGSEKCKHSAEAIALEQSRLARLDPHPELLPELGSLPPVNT

Question: For `O=C(OCCCOC(=O)c1ccc(Br)o1)c1ccc(Br)o1`, which “activity, negative = inhibition” value is on record?
Answer: The value was inactive: -29.5% [at 102 µM].

Question: How did the Potency turn out when `Cc1ccc(-c2nc3s/c(=C\c4ccco4)c(=O)n3n2)cc1` was run?
Answer: The Potency was active: 50.1 µM.

Question: `CCOC(=O)N1CCN(Cc2nc(Cc3cccc(F)c3)no2)CC1` was tested. Which Potency did it give?
Answer: Its Potency is inconclusive: 22.4 µM [inhibitor, single point].

Question: With `O=C(CSc1n[nH]c(-c2ccncc2)n1)c1ccccc1` as the molecule, how does the Potency read?
Answer: The Potency was inconclusive: 17.8 µM [inhibitor, partial curve, poor fit].

Question: With `S=C(NCc1ccncc1)Nc1ccc(Br)cc1Cl` as the molecule, how does the Potency read?
Answer: Its Potency is inconclusive: 89.1 µM [inhibitor, single point].

Question: `COc1cc(/C=C2\SC(=S)NC2=O)ccc1OS(=O)(=O)c1ccccc1` was tested. Which Potency did it give?
Answer: The Potency was active: 11.2 µM.

Question: Which “activity, negative = inhibition” value does the source give for `O=C(CN1CCN(S(=O)(=O)c2ccc(F)cc2)CC1)Nc1ccnn1C1CCCC1` here?
Answer: Its value is inactive: -26.8% [at 102 µM].

Question: Which Potency does the source give for `Cc1cc(C(=O)OCC(=O)N2CCN(c3ccccc3)CC2)c2ccccc2n1` here?
Answer: Its Potency is inconclusive: 28.2 µM [inhibitor, single point].

Question: For `CCOc1ccc(OCCOCCn2ccnc2)cc1`, which Potency is on record?
Answer: The Potency was inconclusive: 3.55 µM [inhibitor, single point].

Question: How did the “activity, negative = inhibition” value turn out when `Cc1ccccc1CN1CCN(CC(=O)NCc2ccccc2Cl)C1=O` was run?
Answer: The value was inactive: -5.35%.

Question: Which “activity, negative = inhibition” value does the source give for `COc1ccc2oc(-c3ccc(C)c(NC(=O)Cc4ccc(Cl)cc4)c3)nc2c1` here?
Answer: The value was inactive: 3.37%.

Question: How did the Potency turn out when `CC(C)n1c(O)c(N=Nc2ccc(Cl)nn2)c2ccccc21` was run?
Answer: Its Potency is inconclusive: 3.55 µM [inhibitor, full curve, poor fit].

Question: How did the Potency turn out when `CC(C)C[C@H](NC(=O)N1CCn2c1nc1ccccc12)C(=O)NCc1ccco1` was run?
Answer: Its Potency is inconclusive: 89.1 µM [inhibitor, partial curve, poor fit].

Question: For `O=C(OCC(=O)N1CCCc2ccccc21)c1c(F)cccc1F`, which Potency is on record?
Answer: Its Potency is inconclusive: 89.1 µM [inhibitor, single point].

Question: With `COc1ccc(NC(=O)CSc2nccn2-c2cccc(OC)c2)cc1` as the molecule, how does the Potency read?
Answer: Its Potency is inconclusive: 25.1 µM [inhibitor, single point].

Question: Which Potency does the source give for `O=C(c1ccc(=O)oc1)N1CCOCC1` here?
Answer: The Potency was active: 22.4 µM.

Question: How did the Potency turn out when `CC(=O)c1c(C)[nH]c(C(=O)Nc2cccc(S(=O)(=O)N(C)c3ccccc3)c2)c1C` was run?
Answer: Its Potency is inconclusive: 39.8 µM [inhibitor, partial curve, poor fit].

Question: How did the Potency turn out when `O=C(NC(=S)N(Cc1ccccc1)c1ccccn1)C1CC1` was run?
Answer: Its Potency is active: 14.1 µM.

Question: With `O=C(O)c1sccc1S(=O)(=O)c1ccccc1` as the molecule, how does the Potency read?
Answer: The Potency was inconclusive: 70.8 µM [inhibitor, single point].

Question: Which Potency does the source give for `Cc1oc(-c2nc3ccccc3n2C)cc1C(=O)c1ccccc1` here?
Answer: Its Potency is active: 10 µM.

Question: `COc1cc(C(=O)/C=C/Nc2ccc(NC(C)=O)cc2)cc(OC)c1OC` was tested. Which Potency did it give?
Answer: The Potency was inconclusive: 31.6 µM [inhibitor, single point].
